Experimental data taken from the supplement of paper PMC3334620.
In all, about 33,000 sequences were measured (“E-score (-0.5 to 0.5)”: median about -0.032, highest 2% from about 0.36 on). This is one part of the list.

target: T1, Sko1 (UniProt Q02100); assay: PBM E-score (8-mer binding enrichment) (E-score (-0.5 to 0.5)); higher = stronger / more preferred TF binding; most listed sequences are background and not binding sites; conditions: protein concentration: 200 nM; construct: GST-full length
T1 sequence: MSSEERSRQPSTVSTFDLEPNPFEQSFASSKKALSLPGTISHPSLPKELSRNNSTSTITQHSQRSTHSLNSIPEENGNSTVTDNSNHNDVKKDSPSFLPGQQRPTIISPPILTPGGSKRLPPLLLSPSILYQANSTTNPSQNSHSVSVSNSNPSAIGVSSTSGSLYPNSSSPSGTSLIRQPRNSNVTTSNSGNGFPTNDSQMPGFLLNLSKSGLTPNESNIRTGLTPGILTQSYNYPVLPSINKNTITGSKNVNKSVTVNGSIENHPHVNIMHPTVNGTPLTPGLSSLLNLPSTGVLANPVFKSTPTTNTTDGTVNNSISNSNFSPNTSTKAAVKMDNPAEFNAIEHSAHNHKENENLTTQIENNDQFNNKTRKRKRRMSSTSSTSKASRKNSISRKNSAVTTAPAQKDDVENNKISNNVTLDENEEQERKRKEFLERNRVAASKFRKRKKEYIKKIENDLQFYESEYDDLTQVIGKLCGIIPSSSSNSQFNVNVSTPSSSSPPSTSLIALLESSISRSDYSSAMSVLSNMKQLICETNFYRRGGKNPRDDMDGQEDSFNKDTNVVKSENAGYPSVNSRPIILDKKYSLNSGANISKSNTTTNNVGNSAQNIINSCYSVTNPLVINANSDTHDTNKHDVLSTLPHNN
How it was run: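 Using PURExpress in vitro transcription/translation, GST-tagged yeast transcription factors were made in full-length or DNA-binding-domain form. These were applied at about 100-200 nM to double-stranded universal all-10-mer Agilent arrays, and bound protein was detected with fluorescent anti-GST. Scans were normalised with masliner before the Universal PBM Analysis Suite assigned E-scores to ungapped eight-base words pooled with their reverse complements.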

| Sequence | PBM E-score |
| --- | --- |
| GGATGATA | 0.0855 |
| CTGGCCAG | -0.0607 |
| ACGAGATG | 0.0948 |
| ATGCGATG | -0.179 |
| GCGTAAAA | 0.279 |
| GCTCTCTA | -0.189 |
| CGTTGAAA | 0.0808 |
| CTTTTAGC | -0.0732 |
| TCACCAAA | 0.218 |
| CCACTGAA | -0.0966 |
| CATTAGCC | -0.188 |
| AGCCGACC | -0.365 |
| AGAGGGAA | -0.205 |
| CCGCAACC | -0.2 |
| AATCGTTG | 0.0973 |
| CGGCAGAG | -0.362 |
| AAGTCATG | 0.0701 |
| ACACATTC | -0.111 |
| CACTGAGA | -0.163 |
| AAATGAGA | 0.0455 |
| ACCTGAAG | -0.223 |
| GCGGACGA | -0.196 |
| AGCGCGTA | 0.281 |
| AAATAGGT | 0.0972 |

| Sequence | PBM E-score |
| --- | --- |
| AGTAAACT | 0.0547 |
| ATCCCGAA | -0.0492 |
| TAAATTGA | 0.204 |
| AGAGCATG | -0.147 |
| AATGTTCT | 0.112 |
| GTAGTCTA | 0.197 |
| CTACTAAG | -0.133 |
| TGCATACA | 0.162 |
| CGGTACTA | -0.112 |
| CGGTCCTC | -0.296 |
| CAGGTGAC | 0.225 |
| GGTCATGA | 0.111 |
| CGAAACTA | 0.0675 |
| CCTCGCGC | -0.173 |
| AGTGCAAT | -0.122 |
| ATCTAGAG | -0.0987 |
| AGGCCCCG | -0.372 |
| ATCTATGA | 0.169 |
| ATACCTGA | 0.0856 |
| CTCATAAA | 0.0771 |
| CCTAGACA | -0.254 |
| CGATTTGC | -0.102 |
| AGAGCTCA | -0.136 |
| ACCTCATA | 0.269 |

| Sequence | PBM E-score |
| --- | --- |
| ATGTGTAG | -0.0138 |
| CTCGTGTA | -0.0261 |
| GGAGGTAA | -0.0922 |
| GCGATCGC | 0.0254 |
| GGCTTGAC | -0.0288 |
| ACAATGAA | 0.1 |
| AGCCGGTA | -0.186 |
| CGCTGTGA | 0.0399 |
| CCCCCCAG | -0.399 |
| GATTACAA | 0.201 |
| GGGACAGA | -0.242 |
| ATTGGTCG | 0.0274 |
| TCAAGCGA | 0.00776 |
| CGCGACGC | -0.00271 |
| CGTACTCA | 0.203 |
| CAAGACAC | 0.0807 |
| CCGGCGCA | -0.151 |
| CTTGCAAG | -0.148 |
| ATAGCGTA | 0.336 |
| ATATGTTA | 0.122 |
| TACCCTGA | -0.126 |
| CTGACGAC | 0.342 |
| ACAGCATC | 0.036 |
| AATGAGGA | -0.158 |

| Sequence | PBM E-score |
| --- | --- |
| CTGGACAG | -0.26 |
| CCAATAGC | -0.187 |
| CACACCTC | -0.177 |
| ATTAATTG | 0.22 |
| ACGTTCCC | 0.103 |
| AGAATCTA | 0.0424 |
| AACTTGTG | 0.113 |
| CGTCCAAA | 0.182 |
| ATGGGAAG | -0.226 |
| ATTTTAGG | 0.175 |
| AAACGATA | 0.168 |
| CACCGACA | -0.084 |
| AGAGTGAG | -0.0544 |
| CGGAGGAC | -0.2 |
| AACGGGTA | -0.0593 |
| AAAAGTAG | 0.113 |
| ACTTGTCA | -0.0956 |
| AGCAAGAC | 0.0222 |
| GTGCCCGA | -0.0346 |
| AAGTACTG | -0.00326 |
| ACACGCCG | -0.00264 |
| AAACACAA | 0.156 |
